Measured values as given in patent US20200101148A1.

Molecular target: PE-conjugated HLA-A*0201 … tetramer (human)
Experiment: flow cytometry, tetramer and anti-CD8 staining of peptide-stimulated PBMC culture

Question: Which results are given for “CD8+ T-cells induced from HLA-A*0201 donor-derived PBMCs with the H3.3.K27M (26-35) peptide”?
Answer: percent of total lymphocyte-gated cells that are CD8+ tetramer+: 64.1%; percent of total lymphocyte-gated cells that are tetramer^high: 2.4%
